Here are results for 42 sequences from article PMC7819943, “Rice protein-binding microarrays: a tool to detect cis-acting elements near promoter regions in rice”.

This is one part of the list.

The experiment concerns the target T1, OsWOX13 (Oryza sativa, UniProt Q5QMM3 1-267).
T1 sequence: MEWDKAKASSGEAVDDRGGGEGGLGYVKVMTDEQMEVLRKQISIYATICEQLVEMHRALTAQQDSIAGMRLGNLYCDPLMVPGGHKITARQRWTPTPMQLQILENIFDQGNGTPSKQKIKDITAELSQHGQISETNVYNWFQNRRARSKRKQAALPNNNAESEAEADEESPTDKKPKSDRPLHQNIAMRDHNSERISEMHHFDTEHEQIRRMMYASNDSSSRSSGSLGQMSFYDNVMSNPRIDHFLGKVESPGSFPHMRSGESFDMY
As to the kind of experiment: protein-binding microarray (RPBM); PBS, 2% BSA, 51.3 ng/ul salmon testes DNA, 50 uM zinc acetate, 200 nM TF, 25 C, 1 h; high values mean tight binding. As to conditions: protein: recombinant; tags: N-terminal polyhistidine and DsRed monomer fusion (pET32a); label: CyDye5-dUTP incorporated in the synthesized complementary strand; 3' TTTTT single-stranded linker to array surface; dsDNA, one strand shown. Summed up:
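Binding signal is reported as fluorescence intensity per feature (arbitrary units) from an Axon 4000B scanner. Incubation used 200 nM of each Ni–NTA-purified, N-terminally polyhistidine- and DsRed-fused transcription factor from E. coli BL21-CodonPlus on a double-stranded custom Agilent array for 1 h at 25 °C, with 50 µM zinc acetate in the buffer, followed by washing.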
“CGCTGACAGGTGGGCCCCAGGGTACGCGTCTCCCGCTGCGCGGAGTCACCTAGTGCAG”: the binding signal was 11900 fluorescence intensity (a.u.).
In the case of “GAAGAGATCAATCACTCCGTTGGTTTTAAGTCACTACGAACGGAGTCACCTAGTGCAG” it was 3860 fluorescence intensity (a.u.).
“ATTACCTATTATTGCTTGTTACTTATTACTTCCCTTTAGTCGGAGTCACCTAGTGCAG”: the binding signal is 5020 fluorescence intensity (a.u.).
In the case of “GAGGGGATCGATTCGATTGATTTGCCAACCACAAGCTACTCGGAGTCACCTAGTGCAG” it was 5390 fluorescence intensity (a.u.); in that of “CAAAGTGACAAATTAATGCACGATTAATTAAGTATTAGCTCGGAGTCACCTAGTGCAG”, 17900 fluorescence intensity (a.u.).
Take “ACCAAGATTGACCTCAAGTCACCTGCACACAATCAGACAACGGAGTCACCTAGTGCAG”: the binding signal is 15500 fluorescence intensity (a.u.).
Consider “CCAAACTGTCATCCATCCGCATCACCTCACCGGTATAAAGCGGAGTCACCTAGTGCAG”, for which the binding signal is 3250 fluorescence intensity (a.u.).
The same measure for “CACGTTTATCTTTATTTGATTGAATAATATTATAATATAGCGGAGTCACCTAGTGCAG”: 20800 fluorescence intensity (a.u.).
Take “CTAATACTTAATTAATCACGCGCTAATAAACCGCTCCGTTCGGAGTCACCTAGTGCAG”: the binding signal was 28100 fluorescence intensity (a.u.).
In the case of “AGAATAATTGTATTATCTCGATATAATTGACTGAGTTCGACGGAGTCACCTAGTGCAG” it was 25200 fluorescence intensity (a.u.); in that of “CTAGATTACAATAAATTTTAAATGGAAACAAACAGGCCGTCGGAGTCACCTAGTGCAG”, 30100 fluorescence intensity (a.u.); in that of “ATTAACTATAATTATCGGCTGCAATCTAATTCGAATGTAGCGGAGTCACCTAGTGCAG”, 30300 fluorescence intensity (a.u.).
The same measure for “CACAAATTAGTTCAGAAATTACTAGTGAATTTCTGGGCGTCGGAGTCACCTAGTGCAG”: 35500 fluorescence intensity (a.u.).
In the case of “ACCTTAATGGAGAAGGAGATGAATCTCAGCCGCGTCATCCCGGAGTCACCTAGTGCAG” it was 9070 fluorescence intensity (a.u.); in that of “TACTAATTTAGAGTATTAAACATAAACTAATAATAAAAGTCGGAGTCACCTAGTGCAG”, 9830 fluorescence intensity (a.u.).
“GTGACAAGTACTAATTAATTACCCACATCTCCCAAGGACCCGGAGTCACCTAGTGCAG”: the binding signal was 19800 fluorescence intensity (a.u.).
Regarding “TCCTGATAGGGCTAGGTAGCGGTTGGTTAATGTGGTGAGGCGGAGTCACCTAGTGCAG”, the binding signal was 4990 fluorescence intensity (a.u.).
The same measure for “TTTAGATAATTACTGATTGTGTGTTTGGCCAGGAACTAGGCGGAGTCACCTAGTGCAG”: 22000 fluorescence intensity (a.u.).
In the case of “GCTTAAATCAACGGCCGAGATTACTCGGAGACTCTTCGCACGGAGTCACCTAGTGCAG” it was 8740 fluorescence intensity (a.u.); in that of “CTGATTACAGCTGTACTACGCTACACTGTCTGTATTGCTACGGAGTCACCTAGTGCAG”, 3710 fluorescence intensity (a.u.).
In the case of “ATATAAATCAGAAAGGAATTTCGCACAGATGCACGGGCTTCGGAGTCACCTAGTGCAG” it was 3480 fluorescence intensity (a.u.); in that of “TCTGTCAACTGCTAATTAACTTTATGAAACGCTGATGCTTCGGAGTCACCTAGTGCAG”, 15700 fluorescence intensity (a.u.).
Consider “AACAAACTAAATTGAGTTTAAATTTCACCCAAATTTATTTCGGAGTCACCTAGTGCAG”, for which the binding signal was 15400 fluorescence intensity (a.u.).
The same measure for “TACTTTGATTTGCACACAATCAAATGTACAGTAGTACATGCGGAGTCACCTAGTGCAG”: 28500 fluorescence intensity (a.u.); for “ATAACTGTAACATTGCATTGAATGTCTTGGCTCCCAGCTTCGGAGTCACCTAGTGCAG”: 3920 fluorescence intensity (a.u.); for “TCCTCTAATTTTCCTCTTGGGTGGTGCATCAGTATATTCTCGGAGTCACCTAGTGCAG”: 3440 fluorescence intensity (a.u.).
Consider “TGTCTCAGATTTACTATAGCTAATTACACAAATTTTGTGGCGGAGTCACCTAGTGCAG”, for which the binding signal was 4750 fluorescence intensity (a.u.).
The same measure for “AATAAAACAACTTGTGATTATGTACATAGACATACTCTTACGGAGTCACCTAGTGCAG”: 4310 fluorescence intensity (a.u.); for “TATATGATGAGAGGTTGACGGTTAATTTAGAACATTAGCCCGGAGTCACCTAGTGCAG”: 8870 fluorescence intensity (a.u.).
“ACAAATTAAACTGTAGCTAGTTAACATATATTTAGAGTCACGGAGTCACCTAGTGCAG”: the binding signal is 8030 fluorescence intensity (a.u.).
For “AATCTCAAATTTAAACAGATGACAATCCAGTTGTCAAGTACGGAGTCACCTAGTGCAG”, the binding signal was 5560 fluorescence intensity (a.u.).
In the case of “GGGTTAATTTGTACATTGCTCTCTGCCATGGCGGCGCCGGCGGAGTCACCTAGTGCAG” it was 17600 fluorescence intensity (a.u.); in that of “GGGTAAAGATCAAAGTTAATTATTCTCGCGATTACTGTCACGGAGTCACCTAGTGCAG”, 4700 fluorescence intensity (a.u.); in that of “GGAAATTGTTGATTTGGACAGGGAAACTGTAATTGGCACCCGGAGTCACCTAGTGCAG”, 44100 fluorescence intensity (a.u.).
Take “GGTTGATGGGCTGACGAACTGGGCAAGTTCGCGTCAAAATCGGAGTCACCTAGTGCAG”: the binding signal is 5670 fluorescence intensity (a.u.).
In the case of “AAATCAACTAAATTTACAAATATAATTTTAGTTATATATGCGGAGTCACCTAGTGCAG” it was 9790 fluorescence intensity (a.u.); in that of “AAAGGATCAAATTGACCGTATTAATAATACGCTTACTTTGCGGAGTCACCTAGTGCAG”, 5630 fluorescence intensity (a.u.).
On to “CTGATAGATTAATCTTATGGGTGCAGGTGGCAATAGCCGACGGAGTCACCTAGTGCAG”, for which the binding signal is 41200 fluorescence intensity (a.u.).
The same measure for “GTTAAATCACAGCCTACAGATTTTCGACCTTCAAAGGAGGCGGAGTCACCTAGTGCAG”: 5480 fluorescence intensity (a.u.).
The same measure for “TCATAAATTTGCCAAATTTGAGCACTTTGCCTATACACTACGGAGTCACCTAGTGCAG”: 20000 fluorescence intensity (a.u.).
Turning to “ATCTAATTACCTCGAAAATACATATGGGCACGCGGTAGCTCGGAGTCACCTAGTGCAG”, the binding signal was 18500 fluorescence intensity (a.u.).
The same measure for “CGACGATGATGATGATGATGACGATGACGAAGAAGATGGCCGGAGTCACCTAGTGCAG”: 10600 fluorescence intensity (a.u.).
